# Test results reported in the RNAGym collection of RNA variant scans (doi:10.1093/nar/gkz1192).
# Read counts are not given, so values of variants with three or more changes are uncertain.
# B1: CPEB3 Ribozyme (parent)
# chain: UAACAGGGGGCCACAGCAGAAGCGUUCACGUCGCAGCCCCUGUCAGAUUCUGGUGAAUCUGCGAAUUCUGCUGUAUAUCUC
# Variants of: B1
# Test: self-cleavage, relative activity (ratio to wild type); higher = more cleavage; in vitro, sequencing
# Outline: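 Libraries of CPEB3 self-cleaving ribozyme mutants came from rounds of error-prone PCR and carried barcodes, which DNA sequencing matched to variants. In vitro transcription used T7 RNA polymerase at 37°C for 5 hours, with a further 15 min in DNase I before EDTA stopped the reaction; the ribozymes cleaved during both steps. The RNA was reverse transcribed with template switching and sequenced on Illumina. Relative activity is the cleaved/total read fraction of a variant divided by that of the unmutated ribozyme, averaged over three batches with at least 5 reads.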
row,Variant,self-cleavage
1,A15U A20G A35G U48C G52C A56U U69C,0.18
2,A15U A20G A35U,0.52
3,A15U A20G A35U U58C U60A U74G,0.13
4,A15U A20G A35U U72C,0.47
5,A15U A20G A45C A64U U78C,0.06
6,A15U A20G A45G A64G,0.2
7,A15U A20G A45U A64G U74C U80C,0.2
8,A15U A20G A47U U54C,0.23
9,A15U A20G A47U U60C A77G U80G,0.16
10,A15U A20G A65G U80A,0.42
11,A15U A20G A75U,0.48
12,A15U A20G A77G,0.29
13,A15U A20G C38U A77C,0.06
14,A15U A20G G24U U43C U49A U69C,0.1
15,A15U A20G G36U U48C,0.1
16,A15U A20G G42A A45G,0.27
17,A15U A20G U25C,0.35
18,A15U A20G U25C A28C A47G U48C U80C,0
19,A15U A20G U25C A35C A47G,0.33
20,A15U A20G U26C,0.16
21,A15U A20G U26C A35G,0.58

row,Variant,self-cleavage
1,A15U A20G U26C U41A G61C,0.28
2,A15U A20G U26C U41A U54A U66C U78C,0.06
3,A15U A20G U26C U43A A47G A56G U67C,0.06
4,A15U A20G U41A U43C,0.42
5,A15U A20G U41A U49C C62A,0.21
6,A15U A20G U41C,0.43
7,A15U A20G U41C A64G,0.48
8,A15U A20G U43A A45U A57G U58C,0.16
9,A15U A20G U43C A57U,0.49
10,A15U A20G U48C A64G A65G U78A,0.04
11,A15U A20G U48C U60A,0.1
12,A15U A20G U48C U69A,0.1
13,A15U A20G U49C A56G U72C U80C,0.12
14,A15U A20G U51A U58C,0.19
15,A15U A20G U54C,0.17
16,A15U A20G U54C A64G,0.22
17,A15U A20G U66C U78C,0.28
18,A15U A20U A35U U43C U60A,0.14
19,A15U A20U A56G U80C,0.07
20,A15U A20U C23U A35G G42A,0.07
21,A15U A20U C37A A47U,0.37

row,Variant,self-cleavage
1,A15U A20U C38A A56G C62U,0.05
2,A15U A20U C40U U43A U58C C62U A77U,0.04
3,A15U A20U U25A U31C U49A A57G,0.07
4,A15U A20U U25C,0.36
5,A15U A20U U25C A35G U41C U67C U74C,0.11
6,A15U A20U U26C A75U,0.23
7,A15U A20U U31A U67C,0.34
8,A15U A20U U43C U54A U66C U67C U74C,0
9,A15U A20U U54C U58A U74C U78C,0.09
10,A15U A20U U69C U78C,0.06
11,A15U A21C C40A C50U,0.12
12,A15U A21C U60C A75U,0.11
13,A15U A21G A28C C44U U58C U67C A77U,0.05
14,A15U A21G A28G G33A A45G,0.33
15,A15U A21G A28U G63A,0.09
16,A15U A21G A35G U58C,0.67
17,A15U A21G A45U U66C U69A,0.06
18,A15U A21G A45U U69A,0.14
19,A15U A21G A47G U66C,0.95
20,A15U A21G A57G,0.18
21,A15U A21G A57G U60C A64C,0.15

row,Variant,self-cleavage
1,A15U A21G C23U,0.16
2,A15U A21G C27A G33A A56G A57G,0.06
3,A15U A21G C32A A56G,0.17
4,A15U A21G C44U C50G U72C U80A,0.12
5,A15U A21G C62A,0.2
6,A15U A21G G24A U26C U41C U54C A64G,0.12
7,A15U A21G G24U U48G U54C A77G,0.03
8,A15U A21G G33A A35G C38A U69A,0.13
9,A15U A21G G33A A35G U69A,0.32
10,A15U A21G G42A A64U,0.07
11,A15U A21G U25C U43C A47C A56U U69C,0
12,A15U A21G U25C U72C,0.08
13,A15U A21G U31C,0.17
14,A15U A21G U41A U54A,0.26
15,A15U A21G U41C C50G U60C A77U,0.07
16,A15U A21G U43C,0.53
17,A15U A21G U43C A47G,0.16
18,A15U A21G U43C U54C U58C U69G,0.26
19,A15U A21G U49C U74A,0.15
20,A15U A21G U54A U76A A77U,0.28
21,A15U A21G U69C,0.17
